This is one part of the list.
What was measured:
Assay in all cases: glycan array binding signal (z-score within array); higher = stronger binding
Details in all cases: glycan notation: IUPAC condensed, linker removed
[1] = molecular target: Gal3S4S(b1-4)GlcNAc
Procedure, shortened: (§1)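 Glycan array binding is given as a within-array Z-score, which can be read as non-binding when negative. The arrays, 3228 of them, came from the Consortium for Functional Glycomics database and were retained only where the protein sequence was available. Z-scores were averaged across arrays of the same protein sequence at different concentrations or buffers and across linkers.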

[2] = molecular target: Gal3S6S(b1-4)GlcNAc
Procedure, shortened: as §1

[3] = molecular target: Gal3S6S(b1-4)GlcNAc6S
Procedure, shortened: as §1

[4] = molecular target: Gal4S(b1-4)GlcNAc
Procedure, shortened: as §1

[5] = molecular target: Gal4S6S(b1-4)GlcNAc
Procedure, shortened: as §1

[6] = molecular target: Gal6P(b1-4)GlcNAc
Procedure, shortened: as §1

[7] = molecular target: Gal6S(b1-3)GlcNAc
Procedure, shortened: as §1

[8] = molecular target: Gal6S(b1-3)GlcNAc6S
Procedure, shortened: as §1

[9] = molecular target: Gal6S(b1-4)Glc
Procedure, shortened: as §1

[10] = molecular target: Gal6S(b1-4)Glc6S
Procedure, shortened: as §1

[11] = molecular target: Gal6S(b1-4)GlcNAc
Procedure, shortened: as §1

[12] = molecular target: Gal6S(b1-4)GlcNAc6S
Procedure, shortened: as §1

[13] = molecular target: GalNAc(a1-3)Gal
Procedure, shortened: as §1

[14] = molecular target: GalNAc(a1-3)GalNAc
Procedure, shortened: as §1

[15] = molecular target: GalNAc(a1-3)GalNAc(b1-3)Gal(a1-4)Gal(b1-4)Glc
Procedure, shortened: as §1

[16] = molecular target: GalNAc(a1-3)GalNAc(b1-3)Gal(a1-4)Gal(b1-4)GlcNAc
Procedure, shortened: as §1

[17] = molecular target: GalNAc(b1-3)Gal
Procedure, shortened: as §1

[18] = molecular target: GalNAc(b1-3)Gal(a1-4)Gal(b1-4)GlcNAc
Procedure, shortened: as §1

[19] = molecular target: GalNAc(b1-3)Gal(a1-4)Gal(b1-4)GlcNAc(b1-3)Gal(b1-4)Glc
Procedure, shortened: as §1

[20] = molecular target: GalNAc(b1-3)Gal(a1-6)Gal(b1-4)Glc
Procedure, shortened: as §1

[21] = molecular target: GalNAc(b1-3)GalNAc
Procedure, shortened: as §1

[22] = molecular target: GalNAc(b1-4)Gal(b1-4)Glc
Procedure, shortened: as §1

[23] = molecular target: GalNAc(b1-4)GlcNAc
Procedure, shortened: as §1

[24] = molecular target: GalNAc(b1-4)GlcNAc(b1-2)Man(a1-3)[GalNAc(b1-4)GlcNAc(b1-2)Man(a1-6)]Man(b1-4)GlcNAc(b1-4)GlcNAc
Procedure, shortened: as §1

[25] = molecular target: GalNAc(b1-4)GlcNAc6S
Procedure, shortened: as §1

[26] = molecular target: GalNAc(b1-6)GalNAc
Procedure, shortened: as §1

[27] = molecular target: GalNAc3S(b1-4)GlcNAc
Procedure, shortened: as §1

[28] = molecular target: GalNAc3S(b1-4)GlcNAc3S
Procedure, shortened: as §1

[29] = molecular target: GalNAc4S6S(b1-4)GlcNAc
Procedure, shortened: as §1

[30] = molecular target: GalNAc6S(b1-4)GlcNAc
Procedure, shortened: as §1

[31] = molecular target: Glc(a1-4)Glc
Procedure, shortened: as §1

[32] = molecular target: Glc(a1-4)Glc(a1-4)Glc(a1-4)Glc
Procedure, shortened: as §1

[33] = molecular target: Glc(a1-6)Glc(a1-6)Glc
Procedure, shortened: as §1

[34] = molecular target: Glc(a1-6)Glc(a1-6)Glc(a1-6)Glc
Procedure, shortened: as §1

[35] = molecular target: Glc(b1-4)Glc
Procedure, shortened: as §1

[36] = molecular target: Glc(b1-6)Glc
Procedure, shortened: as §1

[37] = molecular target: GlcA(b1-3)Gal
Procedure, shortened: as §1

[38] = molecular target: GlcA(b1-3)GlcNAc
Procedure, shortened: as §1

[39] = molecular target: GlcA(b1-6)Gal
Procedure, shortened: as §1

[40] = molecular target: GlcNAc(a1-3)Gal(b1-4)GlcNAc
Procedure, shortened: as §1

[41] = molecular target: GlcNAc(a1-4)Gal(b1-3)GlcNAc
Procedure, shortened: as §1

[42] = molecular target: GlcNAc(a1-4)Gal(b1-4)GalNAc
Procedure, shortened: as §1

[43] = molecular target: GlcNAc(a1-4)Gal(b1-4)GlcNAc
Procedure, shortened: as §1

[44] = molecular target: GlcNAc(a1-4)Gal(b1-4)GlcNAc(b1-3)Gal(b1-4)Glc
Procedure, shortened: as §1

[45] = molecular target: GlcNAc(a1-4)Gal(b1-4)GlcNAc(b1-3)Gal(b1-4)GlcNAc
Procedure, shortened: as §1

B1: Morniga (Morus nigra) (protein)
chain: MAGTSTNTQTTGTSQTVEVGLWGGPGGNAWDDGSYTGIREINLSHGDAIGAFSVIYDLNGQPFTGPTHPGNEPSFKTVKITLDFPNEFLVSVSGYTGVLPRLATGKDVIRSLTFKTNKKTYGPYGKEEGTPFSLPIENGLIVGFKGRSGFVVDAIGVHLS
glycan array binding signal (z-score) [1]: -0.337 | glycan array binding signal (z-score) [2]: -0.338 | glycan array binding signal (z-score) [3]: -0.316 | glycan array binding signal (z-score) [4]: -0.344 | glycan array binding signal (z-score) [5]: -0.324 | glycan array binding signal (z-score) [6]: -0.331 | glycan array binding signal (z-score) [7]: -0.338 | glycan array binding signal (z-score) [8]: -0.334 | glycan array binding signal (z-score) [9]: -0.338 | glycan array binding signal (z-score) [10]: -0.342 | glycan array binding signal (z-score) [11]: -0.335 | glycan array binding signal (z-score) [12]: -0.337 | glycan array binding signal (z-score) [13]: -0.309 | glycan array binding signal (z-score) [14]: -0.334 | glycan array binding signal (z-score) [15]: -0.333 | glycan array binding signal (z-score) [16]: -0.345 | glycan array binding signal (z-score) [17]: -0.329 | glycan array binding signal (z-score) [18]: -0.321 | glycan array binding signal (z-score) [19]: -0.342 | glycan array binding signal (z-score) [20]: -0.334 | glycan array binding signal (z-score) [21]: -0.327 | glycan array binding signal (z-score) [22]: -0.334 | glycan array binding signal (z-score) [23]: -0.327 | glycan array binding signal (z-score) [24]: -0.138 | glycan array binding signal (z-score) [25]: -0.341 | glycan array binding signal (z-score) [26]: -0.336 | glycan array binding signal (z-score) [27]: -0.338 | glycan array binding signal (z-score) [28]: -0.321 | glycan array binding signal (z-score) [29]: -0.338 | glycan array binding signal (z-score) [30]: -0.333 | glycan array binding signal (z-score) [31]: -0.339 | glycan array binding signal (z-score) [32]: -0.335 | glycan array binding signal (z-score) [33]: -0.329 | glycan array binding signal (z-score) [34]: -0.337 | glycan array binding signal (z-score) [35]: -0.335 | glycan array binding signal (z-score) [36]: -0.332 | glycan array binding signal (z-score) [37]: -0.333 | glycan array binding signal (z-score) [38]: -0.318 | glycan array binding signal (z-score) [39]: -0.337 | glycan array binding signal (z-score) [40]: -0.324 | glycan array binding signal (z-score) [41]: -0.337 | glycan array binding signal (z-score) [42]: -0.314 | glycan array binding signal (z-score) [43]: -0.296 | glycan array binding signal (z-score) [44]: -0.334 | glycan array binding signal (z-score) [45]: -0.257
